The text below walks through data of ChEMBL document CHEMBL4888484, “Replenishing the malaria drug discovery pipeline: Screening and hit evaluation of the MMV Hit Generation Library 1 (HGL1) against asexual blood stage Plasmodium falciparum ,using a nano luciferase reporter read-out” (2022).

Hit rate of the full screen: of about 150,000 compounds, about 540 (0.36%) showed an effect of 50% or more. Some of the results follow.

One may read the % Inhibition as the change of the read-out against control, counted positive when it falls.

In the test the test system is Plasmodium falciparum. The test can be described thus: Primary screen in NF54 nanoGlo assay, in single point, at 2uM, 72h; a lower Z score goes with more inhibition. The test is classed as functional, Erythrocyte. The settings on record: timepoint 72 hour.
For the compound `COc1cccc(-c2nsc(C(=O)NCc3cccs3)c2N)c1`, the “% Inhibition” value is given as 18% and the Z score is -2.8.
For `CCC(C)(C)C(=O)Nc1cc(C)ccc1C` the same measures were -10% and 1.29.
Regarding `Cc1nn(-c2cccc3cccnc23)c(=O)c2ccccc12`, the “% Inhibition” value is -16% and the Z score amounted to 2.01.
For `CN(CC(=O)NCc1ccccn1)c1nnc(N2CCCCC2=O)s1` the same measures were -13% and 2.35.
For `CC(C)Cn1c(-c2cn[nH]c2)nnc1N1CC[C@H](N2CCN(C(C)C)CC2)C1` the same measures were -1% and 0.13.
For `Nc1[nH]nc(C2CC2)c1-c1ccc2c(c1)OCO2` the same measures were 12% and -1.55.
`Cc1ccnc(N2CC(CF)C2)c1C#N`: the “% Inhibition” value is recorded as -15% and the Z score is given as 1.82.
The matching figures for `CN(Cc1ccncn1)C(=O)c1csc2nc(-c3ccccc3)cn12`: -6% and 0.86.
For `O=C(NC[C@H]1CCCN(Cc2ccoc2)C1)c1cncnc1` the same measures were -10% and 1.01.
Regarding `O=C(Cn1nnc2ccccc21)NC(C1CC1)C1CC1`, the “% Inhibition” value was 0% and the Z score turned out to be 0.07.
The matching figures for `C[C@@H](c1ccccc1)N1CCN(C(=O)Cn2cnc(C#N)n2)CC1`: -13% and 1.13.
For the compound `O=C(O)c1cc2ccccc2c([C@H]2Nc3ccccc3C(=O)N2O)c1O`, the “% Inhibition” value was -27% and the Z score came out at 3.11.
For the compound `CCN1C(=O)C2(CCN(C(=O)Cc3ccccc3C)CC2)C[C@H]1C(=O)NC1CCCC1`, the “% Inhibition” value is -16% and the Z score stood at 2.
The matching figures for `CCCc1ncncc1C(=O)N(C)C[C@H](O)CO`: 1% and -0.2.
For `C[C@@H](Cc1cn(Cc2n[nH]c3c2CCC3)nn1)c1ccccc1` the same measures were -12% and 2.18.
For `CCOc1ncccc1CN1C[C@@H](C(=O)O)CC1=O` the same measures were 3% and -0.4.
Turning to `N#Cc1cccc(N2CCC[C@@]3(CCC(=O)N(CCc4c[nH]cn4)C3)C2)n1`, the “% Inhibition” value is reported as 2% and the Z score is -0.39.
Take `COc1ccccc1-c1nc(S(=O)(=O)c2ccc3c(c2)OCCO3)c(N2CCOCC2)o1`: the “% Inhibition” value is -10% and the Z score came out at 1.29.
The matching figures for `O=C(N[C@@H](CO)C(=O)N1Cc2ccccc2C1)c1ccccc1`: 1% and -0.16.
For `CC(=O)Nc1ccc(S(=O)(=O)NC2=NCN(C)CN2)cc1` the same measures were -6% and 0.91.
The matching figures for `CC(O)CC1COCCN1C(=O)NC1CC=CC1` (stereo unspecified): -10% and 1.45.
For the compound `O=c1[nH]cncc1-c1nc(-c2ccc(Cl)cc2)no1`, the “% Inhibition” value was 30% and the Z score was -3.41.
For `CCc1nnc2n1CCN(C(=O)c1c(C)oc(C)c1C)C2` the same measures were 2% and -0.37.
For `O=C(OCCNc1nc(-c2ccccc2)nc2ccccc12)c1cccnc1` the same measures were -5% and 0.59.
Take `Cc1cc(NC(=O)Cn2ncc3cc(-c4ccccc4N(C)C)ccc32)n(C)n1`: the “% Inhibition” value is given as 9% and the Z score is listed as -1.73.
For `Cc1cccc(Cl)c1OCCOCCNC(C)(C)C` the same measures were 0% and 0.01.
Regarding `[O-][N+]1=CC(c2ccc3c(c2)OCO3)=[N+]([O-])C2CCCCC21` (stereo unspecified), the “% Inhibition” value is -11% and the Z score was 1.5.
The matching figures for `O=C(NCc1ccccn1)[C@@H]1CN(C(=O)Nc2ccc3c(c2)OCO3)CCO1`: -2% and 0.23.
The matching figures for `Cc1nn(C)c(N2CCN(c3ncc(Cl)cn3)CC2)c1N`: -8% and 1.01.
The matching figures for `CN(CCc1nccs1)C(=O)[C@@H]1CCCN1CC(F)(F)F`: -2% and 0.34.
As for `Cc1ccc(-c2c3c(=O)n(C)c(=O)n(C)c3c3n2-c2cc(C)ccc2O[C@@H]3c2ccccc2Cl)cc1`, the “% Inhibition” value is given as -6% and the Z score is reported as 0.87.
As for `CN(C(=O)c1scnc1C1CC1)C1CCN(S(C)(=O)=O)CC1`, the “% Inhibition” value was 2% and the Z score is on record as -0.34.
With `CC(C)=CCN1C(=O)[C@@H]2CC[C@H]1CN(C(=O)CCc1csc(N)n1)C2`, the “% Inhibition” value is -5% and the Z score is 0.67.
With `O[C@H]1Cc2ccccc2[C@H]1NCc1ncc[nH]1`, the “% Inhibition” value is given as -25% and the Z score is 3.37.
The matching figures for `CC(=O)[C@H]1CCN(C(=O)c2ccoc2)C1`: -13% and 2.4.
For `CCC(=O)N(C)CC(=O)Nc1ccc(Cl)cc1` the same measures were 7% and -0.66.
For `COC(=O)c1cc(CNCc2ccccc2OC)on1` the same measures were -9% and 0.74.
`Cc1oc(-c2ccccc2)nc1Cn1nnc(-c2nc(-c3cccc(Br)c3)no2)c1C`: the “% Inhibition” value is -7% and the Z score is recorded as 0.96.
The matching figures for `Cc1cc(Br)ccc1N1CC[C@@H](C(=O)NC2CC2)C1=O`: 31% and -0.35.
For `O=C(c1cnc(NC[C@@H](CO)c2cccnc2)c(Cl)c1)N1CCOCC1`, the “% Inhibition” value is listed as -14% and the Z score is listed as 2.3.
The matching figures for `COCCCn1cnc2c(-c3ccccc3)cn(CC(=O)Nc3ccccc3C)c2c1=O`: -1% and 0.16.
Consider `CCc1nc(C)sc1C(=O)N[C@@H]1COCC[C@@H]1OCc1ccccc1`, for which the “% Inhibition” value is -9% and the Z score was 1.25.
For `CCCNC(=O)CN(CCC)C(=O)[C@@H](c1cnn(C)c1)N(C)C(=O)OC(C)(C)C` the same measures were -6% and 0.54.
The matching figures for `Cc1ncn(CCNC(=O)[C@@H]2CCCCCN2C)c1C`: -8% and 1.
With `c1ccc(Cc2cn[nH]c2C2CCN(C3Cc4ccccc4C3)CC2)cc1`, the “% Inhibition” value turned out to be 10% and the Z score is -2.1.
Regarding `COc1ccccc1CNS(=O)(=O)c1c(C)c(C)cc2c(C)c(C(=O)N3CCCC3)oc12`, the “% Inhibition” value is -8% and the Z score turned out to be 1.
In the case of `COCCN1C[C@@H](Cn2cnc(-c3ccccc3)c2C)CC1=O`, the “% Inhibition” value is given as -1% and the Z score was determined as 0.27.
For `Cc1ccsc1C(=O)N1CC[C@@]2(CCCN(Cc3cccnc3)C2=O)C1`, the “% Inhibition” value is -5% and the Z score was 0.87.
The matching figures for `Cc1ccc(-c2nnc(N3CCN(Cc4ccccc4)CC3)n2CCOc2ccccc2)s1`: -9% and 1.5.
For `O=C(NC[C@H]1C[C@@H]1c1ccc(Cl)cc1Cl)c1cccnn1` the same measures were 7% and -1.31.
The matching figures for `Cn1cnnc1[C@@H]1CCCN1CC(=O)Nc1ccc(S(=O)(=O)C(F)F)cc1`: -7% and 0.86.
On to `c1ccc2[nH]c(C3CCN(Cc4cc(CN5CCCC5)cs4)CC3)nc2c1`, for which the “% Inhibition” value is listed as -10% and the Z score came out at 2.16.
On to `CCOc1ccc(NC(=O)Cn2c(=O)c3nncn3c3ccccc32)cc1`, for which the “% Inhibition” value is given as -9% and the Z score came to 0.97.
The matching figures for `Cc1ccc(NC(=O)Cn2nc(-c3ccco3)c3sc(N4CCCCC4)nc3c2=O)cc1Cl`: -1% and 0.23.
For the compound `OCCn1cc(N[C@H]2CCOC23CCCC3)cn1`, the “% Inhibition” value is on record as -1% and the Z score turned out to be 0.16.
Regarding `CN(C)[C@H]1CN(Cc2ncccn2)C[C@@H]1C1CC1`, the “% Inhibition” value is recorded as 11% and the Z score was -0.97.
The matching figures for `CCC[C@H]1CN(c2nc(N(C)C)ns2)C[C@@H]1C(=O)O`: -10% and 1.33.
For `CCN1CCC[C@@H]1CNS(=O)(=O)c1c(C)c(C)cc2c(C)c(C(=O)N3CCCCC3)oc12` the same measures were -4% and 0.84.
For `O=C(NC1CCCCC1)N1Cc2nc[nH]c2C[C@H]1c1nc(-c2ccc(F)c(Cl)c2)no1` the same measures were -3% and 0.5.
On to `CC(C)[C@H](CNS(=O)(=O)C1CCOCC1)Cc1ccccc1`, for which the “% Inhibition” value was determined as 9% and the Z score is listed as -1.35.
The matching figures for `CN(Cc1nnc(C2CC2)n1C)C(=O)c1ccc(-n2ccnn2)cc1`: -8% and 1.09.
On to `COc1cc(NS(=O)(=O)c2ccc(-n3cnnn3)cc2)nc(OC)n1`, for which the “% Inhibition” value amounted to 33% and the Z score is given as -4.24.
For `Cc1sc2nc(CN3CCC(C)CC3)nc(N3CCC(NC(=O)c4ccncc4)CC3)c2c1C` the same measures were 10% and -1.9.
For `CCOc1ccc(S(=O)(=O)N2CCN(Cc3nc(-c4cccc(Cl)c4)oc3C)CC2)cc1`, the “% Inhibition” value is given as -8% and the Z score amounted to 1.03.
The matching figures for `C[C@@H]1CN(C(=O)c2ccc[nH]2)CC[C@@]1(O)C1CCOCC1`: -16% and 2.79.
The matching figures for `Cc1cc(C(C)(C)C(=O)NC[C@H](O)c2ccnn2C)ccc1Br`: -9% and 1.43.
For `Cc1cc(F)ccc1-n1c(=O)c2sccc2n(CC(=O)N(C)c2ccccc2)c1=O` the same measures were 0% and 0.04.
`COC(=O)[C@@](c1cc(C)c(O)c(C)c1)(N1CCN(c2ccccc2)CC1)C(F)(F)F`: the “% Inhibition” value is on record as -5% and the Z score stood at 0.64.
The matching figures for `COC(=O)c1c(Cl)ccc(C(N)=O)c1Cl`: -6% and 0.87.
For the compound `CCS(=O)(=O)N1CC(=O)N(c2ccc(NC(C)=O)cc2)[C@](C)(C(=O)NC2CCCCCC2)C1`, the “% Inhibition” value is on record as -4% and the Z score was found to be 0.72.
For `Cc1cc(N(C)C[C@H]2CCOC2)nc2cc(F)ccc12` the same measures were -7% and 1.37.
As to `CC(C(C)S(C)(=O)=O)N(C)C(=O)c1ccc2c(c1)N(C)CC2` (stereo unspecified), the “% Inhibition” value turned out to be 0% and the Z score was 0.07.
For `CC(C)(C)c1cnc(CNc2nnc([C@@H]3CCCO3)o2)s1` the same measures were -6% and 0.84.
For `CCCCCNC(=O)C1CCC(Cn2cnnn2)CC1` (stereo unspecified) the same measures were -5% and 0.6.
For `C[C@]1(n2cc(CN3CCOCc4ccccc43)cn2)CCS(=O)(=O)C1` the same measures were -2% and 0.32.
`O=C(NS(=O)(=O)c1cccnc1)c1ccc(OC2CCC2)cc1Cl`: the “% Inhibition” value is listed as 1% and the Z score was -0.17.
For `Cc1ccc(O)c(NC(=O)OC(C)(C)C)c1` the same measures were -8% and 1.26.
For `O=C1N(Cc2ccc(F)cc2)CCC[C@@]1(O)CN1CCCCCC1` the same measures were 11% and -1.44.
The matching figures for `Cc1nc(CN2CCC3(CCC(=O)N(CCc4ccccn4)C3)CC2)n(C)n1`: -6% and 0.95.
For `COc1ccc2cc1OCCn1cc(nn1)CO[C@H]1CN(C(=O)CCn3cncn3)C[C@@H]1NC2=O`, the “% Inhibition” value came out at 6% and the Z score is listed as -0.82.
For `NS(=O)(=O)c1ccc(CNC(=O)[C@]2(c3ccccc3)CC23CCCC3)cc1` the same measures were -12% and 2.06.
For `O=C(Cc1n[nH]c(=O)c2ccccc12)NC[C@H]1CCCO1` the same measures were -5% and 0.45.
Turning to `CC1CC(C)CN(C(=O)Cn2ncc3ccc(Cl)cc32)C1` (stereo unspecified), the “% Inhibition” value is reported as -4% and the Z score worked out at 0.62.
